The list shows a part of the results.
Assays:
Assay in all cases: glycan array binding signal (z-score within array); higher = stronger binding
Conditions in all cases: glycan notation: IUPAC condensed, linker removed
Gal(b1-2)Gal = target: Gal(b1-2)Gal
Outline: (§1)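 The binding signal is a Z-score computed within each array and averaged over linkers. Arrays of the same protein sequence at different concentrations or buffers were also averaged together. Data originate from 3228 arrays in the Consortium for Functional Glycomics database, kept only where the protein sequence was available.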

Gal(b1-3)Gal = target: Gal(b1-3)Gal
Outline: as §1

Gal(b1-3)Gal(b1-4)GlcNAc = target: Gal(b1-3)Gal(b1-4)GlcNAc
Outline: as §1

Gal(b1-3)GalNAc = target: Gal(b1-3)GalNAc
Outline: as §1

[1] = target: Gal(b1-3)GalNAc(a1-3)[Fuc(a1-2)]Gal(b1-4)Glc
Outline: as §1

[2] = target: Gal(b1-3)GalNAc(a1-3)[Fuc(a1-2)]Gal(b1-4)GlcNAc
Outline: as §1

Gal(b1-3)GalNAc(b1-3)Gal = target: Gal(b1-3)GalNAc(b1-3)Gal
Outline: as §1

[3] = target: Gal(b1-3)GalNAc(b1-3)Gal(a1-4)Gal(b1-4)Glc
Outline: as §1

[4] = target: Gal(b1-3)GalNAc(b1-4)Gal(b1-4)Glc
Outline: as §1

[5] = target: Gal(b1-3)GalNAc(b1-4)[Neu5Ac(a2-3)]Gal(b1-4)Glc
Outline: as §1

Gal(b1-3)GlcNAc = target: Gal(b1-3)GlcNAc
Outline: as §1

[6] = target: Gal(b1-3)GlcNAc(a1-3)Gal(b1-4)GlcNAc
Outline: as §1

[7] = target: Gal(b1-3)GlcNAc(a1-6)Gal(b1-4)GlcNAc
Outline: as §1

Gal(b1-3)GlcNAc(b1-2)Man = target: Gal(b1-3)GlcNAc(b1-2)Man
Outline: as §1

[8] = target: Gal(b1-3)GlcNAc(b1-2)Man(a1-3)[Gal(b1-3)GlcNAc(b1-2)Man(a1-6)]Man(b1-4)GlcNAc(b1-4)GlcNAc
Outline: as §1

[9] = target: Gal(b1-3)GlcNAc(b1-2)Man(a1-3)[Gal(b1-3)GlcNAc(b1-2)Man(a1-6)]Man(b1-4)GlcNAc(b1-4)[Fuc(a1-6)]GlcNAc
Outline: as §1

[10] = target: Gal(b1-3)GlcNAc(b1-2)Man(a1-3)[GlcNAc(b1-4)][Gal(b1-3)GlcNAc(b1-2)Man(a1-6)]Man(b1-4)GlcNAc(b1-4)GlcNAc
Outline: as §1

[11] = target: Gal(b1-3)GlcNAc(b1-2)[Gal(b1-3)GlcNAc(b1-6)]Man(a1-6)[Gal(b1-3)GlcNAc(b1-2)Man(a1-3)]Man(b1-4)GlcNAc(b1-4)GlcNAc
Outline: as §1

[12] = target: Gal(b1-3)GlcNAc(b1-3)Gal(b1-3)GlcNAc
Outline: as §1

[13] = target: Gal(b1-3)GlcNAc(b1-3)Gal(b1-4)Glc
Outline: as §1

[14] = target: Gal(b1-3)GlcNAc(b1-3)Gal(b1-4)GlcNAc
Outline: as §1

[15] = target: Gal(b1-3)GlcNAc(b1-3)Gal(b1-4)GlcNAc(b1-2)Man(a1-3)[Gal(b1-3)GlcNAc(b1-3)Gal(b1-4)GlcNAc(b1-2)Man(a1-6)]Man(b1-4)GlcNAc(b1-4)GlcNAc
Outline: as §1

[16] = target: Gal(b1-3)GlcNAc(b1-3)Gal(b1-4)GlcNAc(b1-2)[Gal(b1-3)GlcNAc(b1-3)Gal(b1-4)GlcNAc(b1-6)]Man(a1-6)[Gal(b1-3)GlcNAc(b1-3)Gal(b1-4)GlcNAc(b1-2)Man(a1-3)]Man(b1-4)GlcNAc(b1-4)[Fuc(a1-6)]GlcNAc
Outline: as §1

[17] = target: Gal(b1-3)GlcNAc(b1-3)Gal(b1-4)GlcNAc(b1-3)Gal(b1-4)GlcNAc(b1-2)[Gal(b1-3)GlcNAc(b1-3)Gal(b1-4)GlcNAc(b1-3)Gal(b1-4)GlcNAc(b1-6)]Man(a1-6)[Gal(b1-3)GlcNAc(b1-3)Gal(b1-4)GlcNAc(b1-3)Gal(b1-4)GlcNAc(b1-2)Man(a1-3)]Man(b1-4)GlcNAc(b1-4)[Fuc(a1-6)]GlcNAc
Outline: as §1

[18] = target: Gal(b1-3)GlcNAc(b1-3)Gal(b1-4)GlcNAc(b1-6)[Gal(b1-3)GlcNAc(b1-3)]Gal(b1-4)Glc
Outline: as §1

[19] = target: Gal(b1-3)GlcNAc(b1-3)Gal(b1-4)[Fuc(a1-3)]GlcNAc
Outline: as §1

[20] = target: Gal(b1-3)GlcNAc(b1-3)Gal(b1-4)[Fuc(a1-3)]GlcNAc(b1-6)[Gal(b1-3)GlcNAc(b1-3)]Gal(b1-4)Glc
Outline: as §1

[21] = target: Gal(b1-3)GlcNAc(b1-3)GalNAc
Outline: as §1

[22] = target: Gal(b1-3)GlcNAc(b1-6)Gal(b1-4)GlcNAc
Outline: as §1

[23] = target: Gal(b1-3)GlcNAc(b1-6)GalNAc
Outline: as §1

[24] = target: Gal(b1-3)GlcNAc(b1-6)[Gal(b1-3)]GalNAc
Outline: as §1

Gal(b1-3)GlcNAc6S = target: Gal(b1-3)GlcNAc6S
Outline: as §1

[25] = target: Gal(b1-3)[Fuc(a1-4)]GlcNAc
Outline: as §1

[26] = target: Gal(b1-3)[Fuc(a1-4)]GlcNAc(b1-2)Man
Outline: as §1

[27] = target: Gal(b1-3)[Fuc(a1-4)]GlcNAc(b1-2)Man(a1-3)[Gal(b1-3)[Fuc(a1-4)]GlcNAc(b1-2)Man(a1-6)]Man(b1-4)GlcNAc(b1-4)[Fuc(a1-6)]GlcNAc
Outline: as §1

[28] = target: Gal(b1-3)[Fuc(a1-4)]GlcNAc(b1-3)Gal(b1-3)[Fuc(a1-4)]GlcNAc
Outline: as §1

[29] = target: Gal(b1-3)[Fuc(a1-4)]GlcNAc(b1-3)Gal(b1-4)[Fuc(a1-3)]GlcNAc
Outline: as §1

B1: Cohesin-mDCIR (Macaca mulatta) (protein)
chain: GLDDLDAVRIKVDTVNAKPGDTVRIPVRFSGIPSKGIANCDFVYSYDPNVLEIIEIEPGDIIVDPNPDKSFDTAVYPDRKIIVFLFAEDSGTGAYAITKDGVFATIVAKVKEGAPNGLSVIKFVEVGGFANNDLVEQKTQFFDGGVNVGDTTEPATPTTPVTTPTTTDDLDAASFQKYSQLLEKMTTKDLVHTTLECVKKNMTTEETAWSCCPKNWKPFSSNCYFISTESASWQKSEKDCARMEAHLLVINTREEQDFIFQNLQEESAYFVGLSDPEGQRHWQWVDRTPYNESSTFWHPHEPSDPDERCVVLNFRKTPKRWGWNDVHCIVHQRSVCEMMKIHLHHHHHH
**Q.** How did the “glycan array binding signal (z-score)” value (Gal(b1-2)Gal) turn out when B1 was run?
**A.** 2.33

**Q.** What about the “glycan array binding signal (z-score)” value (Gal(b1-3)Gal) of the same binder?
**A.** 0.098

**Q.** And the “glycan array binding signal (z-score)” value (Gal(b1-3)Gal(b1-4)GlcNAc)?
**A.** -0.416

**Q.** And the “glycan array binding signal (z-score)” value (Gal(b1-3)GalNAc)?
**A.** -0.192

**Q.** What about the “glycan array binding signal (z-score)” value [1] of the same binder?
**A.** -0.279

**Q.** What about the “glycan array binding signal (z-score)” value [2] of the same binder?
**A.** -0.227

**Q.** And the “glycan array binding signal (z-score)” value (Gal(b1-3)GalNAc(b1-3)Gal)?
**A.** -0.403

**Q.** And the “glycan array binding signal (z-score)” value [3]?
**A.** -0.273

**Q.** And the “glycan array binding signal (z-score)” value [4]?
**A.** -0.429

**Q.** What about the “glycan array binding signal (z-score)” value [5] of the same binder?
**A.** -0.325

**Q.** And the “glycan array binding signal (z-score)” value (Gal(b1-3)GlcNAc)?
**A.** -0.069

**Q.** And the “glycan array binding signal (z-score)” value [6]?
**A.** -0.372

**Q.** And the “glycan array binding signal (z-score)” value [7]?
**A.** -0.186

**Q.** And the “glycan array binding signal (z-score)” value (Gal(b1-3)GlcNAc(b1-2)Man)?
**A.** 0.185

**Q.** What about the “glycan array binding signal (z-score)” value [8] of the same binder?
**A.** -0.341

**Q.** And the “glycan array binding signal (z-score)” value [9]?
**A.** -0.271

**Q.** And the “glycan array binding signal (z-score)” value [10]?
**A.** -0.285

**Q.** And the “glycan array binding signal (z-score)” value [11]?
**A.** -0.369

**Q.** What about the “glycan array binding signal (z-score)” value [12] of the same binder?
**A.** -0.43

**Q.** What about the “glycan array binding signal (z-score)” value [13] of the same binder?
**A.** -0.363

**Q.** What about the “glycan array binding signal (z-score)” value [14] of the same binder?
**A.** -0.249

**Q.** And the “glycan array binding signal (z-score)” value [15]?
**A.** -0.022

**Q.** And the “glycan array binding signal (z-score)” value [16]?
**A.** -0.123

**Q.** What about the “glycan array binding signal (z-score)” value [17] of the same binder?
**A.** 0.116

**Q.** And the “glycan array binding signal (z-score)” value [18]?
**A.** -0.392

**Q.** What about the “glycan array binding signal (z-score)” value [19] of the same binder?
**A.** 0.304

**Q.** What about the “glycan array binding signal (z-score)” value [20] of the same binder?
**A.** -0.45

**Q.** What about the “glycan array binding signal (z-score)” value [21] of the same binder?
**A.** -0.443

**Q.** And the “glycan array binding signal (z-score)” value [22]?
**A.** -0.18

**Q.** And the “glycan array binding signal (z-score)” value [23]?
**A.** 3.16

**Q.** What about the “glycan array binding signal (z-score)” value [24] of the same binder?
**A.** -0.421

**Q.** What about the “glycan array binding signal (z-score)” value (Gal(b1-3)GlcNAc6S) of the same binder?
**A.** -0.455

**Q.** What about the “glycan array binding signal (z-score)” value [25] of the same binder?
**A.** -0.093

**Q.** What about the “glycan array binding signal (z-score)” value [26] of the same binder?
**A.** -0.313

**Q.** What about the “glycan array binding signal (z-score)” value [27] of the same binder?
**A.** -0.285

**Q.** What about the “glycan array binding signal (z-score)” value [28] of the same binder?
**A.** 4.89

**Q.** And the “glycan array binding signal (z-score)” value [29]?
**A.** -0.285

Source: the supplement of paper PMC8728848
